# Results reported in PubChem BioAssay AID743279 (National Center for Advancing Translational Sciences (NCATS), 2014).
# The whole screen tested about 360,000 compounds, of which about 17,000 (4.7%) were called active. Inconclusive results, whose numbers are uncertain, are shown with a selection of clear calls. No stated cut-off is given here; in the data, active means activity change below about -50%; inconclusive means mostly about -30% to -49%; inactive means weaker than that.
# Assay: qHTS for Inhibitors of Inflammasome Signaling: IL-1-beta AlphaLISA Primary Screen
# Settings: THP-1 LPS/ATP IL-1B secretion, 16 h; at 57.5 µM, stronger effect = lower value
# Method in brief: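 THP-1 cells pretreated 1 hr with compounds (up to 57.5 uM final), then stimulated with LPS (250 ng/mL final) plus ATP (1.25 mM final); secreted IL-1B measured by AlphaLISA after 16 hr, decreased signal indicating inhibition.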
# On the % scale 0 is the no-effect control and ±100 the full control effect.
row,Compound,activity change
1,O=C1c2ccccc2C(=O)N1Cc1nn2c(-c3ccc(Cl)cc3)nnc2s1,inactive: 11.1%
2,CCSc1nc(N)c(C#N)c(-c2ccco2)c1C#N,inconclusive: -39.6%
3,COC(=O)c1ccc(COC(=O)[C@@H]2CC(O)CN2S(=O)(=O)c2ccccc2[N+](=O)[O-])cc1 (some centres undefined),active: -97.4%
4,COc1ccc(N2CCN(C(=O)CN3c4cccc5cccc(c45)S3(=O)=O)CC2)cc1,inconclusive: -49.9%
5,Cn1ccnc1SCC(=O)N1CCc2ccccc21,inactive: -2.86%
6,COc1ccccc1Oc1ccc2c(c1)C(=O)N(c1cccc3ncccc13)C2=O,inactive: 32.1%
7,COc1cccc(CNC(=O)CCn2ccc3cc(S(=O)(=O)N4CCC(C)CC4)ccc32)c1,inconclusive: -38.7%
8,CC1CN(CCOc2ccccc2-c2ccccc2)CC(C)O1 (centres undefined),inactive: 0%
9,O=C(Nc1ccn(CCCN2CCN(Cc3cccc4ccccc34)CC2)c(=O)n1)OCc1ccccc1,inconclusive: -48.2%
10,Clc1ccc(CN2C3=NCCCN3c3ccccc32)c(Cl)c1,active: -73.5%
11,O=C(N/N=C/c1ccc2c(c1)OCO2)/C(=C/c1ccc2c(c1)OCO2)NC(=O)c1ccccc1,inconclusive: -37.2%
12,O=C(Nc1ccc(S(=O)(=O)Nc2ncccn2)cc1)c1ccc(Br)o1,inactive: 13.7%
13,Cn1c(=O)n(C)c2cc(NS(=O)(=O)c3ccc(C(C)(C)C)cc3)ccc21,inactive: 8.48%
14,Cc1c(CCOC(=O)CC23CC4CC(CC(C4)C2)C3)sc[n+]1CC(=O)c1ccccc1,inconclusive: -44.2%
15,CCOC(=O)C1=C(CC)OC(N)=C(C#N)C1c1ccc(OC)c(C)c1OC (centres undefined),inconclusive: -30.9%
16,O=C(NC1CCCCCCC1)c1ccc(F)cc1,inactive: -7.32%
17,Cc1cc(C(=O)O)ccc1-n1c(C)cc(/C=C(/C#N)C(=O)Nc2ccccc2)c1C,active: -65.9%
18,CC(=O)c1ccc(N=Nc2ccc(N)cc2)cc1,inconclusive: -34.2%
19,Cc1cccc(NC(=O)c2cnn(-c3ccccc3)c2C)c1C,inconclusive: -36.9%
20,COc1cccc(Nc2nnc(SCC3CCCCO3)s2)c1 (centres undefined),inconclusive: -44.4%
21,CCCCc1c(-c2ccccc2OC)ncn1CCc1ccc(Cl)cc1,inconclusive: -38.9%
22,CCOC(=O)C1(Cc2ccccc2)CCCN(S(=O)(=O)N(C)C)C1 (centres undefined),inactive: 59.6%
23,COc1ccc(Cn2c(-c3ccco3)nc3oc4cc(OC)ccc4c(=O)c3c2=O)cc1,inactive: -0.0769%
24,CCCCOc1c(Br)cc(CNCCCN2CCOCC2)cc1OC,active: -66%
